Laboratory results published in PubChem BioAssay AID488969 (Vanderbilt High Throughput Screening Facility, 2010).
In all, about 110,000 compounds were measured (“z-score”: median about -0.1, highest 2% from about 2 on). The list shows a part of the results. Activity calls are given as the source filed them.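 Rule for the calls: active = z-score in the third read window above 3 or below -3; inactive = the rest.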

biological target: Metabotropic glutamate receptor 8 (Rattus norvegicus) (UniProt P70579); experiment: mGluR8 Gi/Go-coupled signaling modulation – cell-based, rat, thallium flux, HTS, primary screen (AID 488969); conditions: HEK293 rat mGluR8, GIRK (G protein-gated inwardly rectifying potassium channel) thallium flux, FluoZin2; at 10 µM; stronger effect = higher value; submaximal glutamate (EC20) added with thallium
Sequence of UniProt P70579 (P70579 whole entry, looked up): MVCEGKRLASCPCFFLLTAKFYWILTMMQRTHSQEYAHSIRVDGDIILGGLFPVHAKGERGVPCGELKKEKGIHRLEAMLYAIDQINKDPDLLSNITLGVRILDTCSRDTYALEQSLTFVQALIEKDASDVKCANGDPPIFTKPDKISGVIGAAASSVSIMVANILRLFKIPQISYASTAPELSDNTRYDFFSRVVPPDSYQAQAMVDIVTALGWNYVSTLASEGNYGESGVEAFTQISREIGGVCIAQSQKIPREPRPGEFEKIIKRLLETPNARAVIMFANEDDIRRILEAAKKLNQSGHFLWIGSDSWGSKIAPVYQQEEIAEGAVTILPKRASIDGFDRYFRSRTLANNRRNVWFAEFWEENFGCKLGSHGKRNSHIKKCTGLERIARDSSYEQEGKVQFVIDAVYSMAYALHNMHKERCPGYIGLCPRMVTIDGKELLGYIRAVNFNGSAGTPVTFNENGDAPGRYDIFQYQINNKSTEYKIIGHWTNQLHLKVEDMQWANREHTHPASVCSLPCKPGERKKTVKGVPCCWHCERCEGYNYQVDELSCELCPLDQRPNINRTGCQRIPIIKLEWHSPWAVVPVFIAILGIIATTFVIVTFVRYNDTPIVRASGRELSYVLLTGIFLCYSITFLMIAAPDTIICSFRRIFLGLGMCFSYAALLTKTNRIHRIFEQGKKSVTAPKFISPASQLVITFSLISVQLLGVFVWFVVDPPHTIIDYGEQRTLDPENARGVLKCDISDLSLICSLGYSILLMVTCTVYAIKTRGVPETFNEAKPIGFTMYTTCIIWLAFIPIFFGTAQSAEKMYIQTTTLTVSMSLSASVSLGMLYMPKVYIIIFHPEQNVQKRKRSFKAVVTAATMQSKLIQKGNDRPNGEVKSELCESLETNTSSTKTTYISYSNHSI

Structure (SMILES)	z-score
CCC(CC)C(=O)Nc1ccccc1NC(C)=O	0.239
Cc1cccc(-c2nc(CSCC(=O)NCCCN3CCOCC3)c(C)o2)c1	-0.0671
CCOCCCNC(=O)C(NC(=O)C1CCC(=O)N1)c1ccc(C)cc1 (configuration not stated)	-0.137
COc1ccc(Cl)cc1NC(=O)NC1CCCCC1	-0.411
Cc1cc(=O)n2[nH]c(-c3ccco3)nc2n1	-0.387
Cc1cc2ccccc2c(=O)n1CC(=O)NC1CCCCCC1	0.246
CCOC(=O)c1c(C)c(C(=O)Nc2ccc3c(c2)OCCO3)c(C)n1CC	-1.49
CC1CN=C(N(Cc2ccccc2)C(=O)Nc2ccccc2)S1 (configuration not stated)	-0.882
CC(=O)c1ccc(S(=O)(=O)N2CCCC2)cc1	0.379
COc1cc2c(cc1OC)C(c1ccccc1)N(C(=O)c1ccco1)CC2 (configuration not stated)	-1.99
Cc1nc2c(sc3nc4c(cc32)COC(C)(C)C4)c(=O)o1	0.53
O=C(O)c1cccc(OCc2ccccc2Cl)c1	0.74
O=C(CCC1COc2ccccc2O1)Nc1ccc(Cl)cn1 (configuration not stated)	-0.27
CCOc1cc(NC(=S)NCC2CCCO2)c(OCC)cc1NC(=O)c1cccc(C)c1 (configuration not stated)	-0.0401
CCCOc1ccc(C(=O)NNC(=S)NC(=O)c2cc(-c3ccccc3)nc3ccccc23)cc1	0.558
Clc1ccccc1COc1ccccc1-c1nnco1	-1
CCN(CC)S(=O)(=O)c1ccc(Cl)c(NC(=O)c2ccccc2C)c1	-0.107
O=C(CSc1ccc(-c2ccccc2)nn1)N1CCOCC1	0.106
O=C(CSc1nnc(-c2cccs2)n1-c1ccccc1)NCc1ccc2c(c1)OCO2	-0.377

Structure (SMILES)	z-score
COc1ccc(-c2onc(C)c2-c2ccc(C(=O)OC(C)C)o2)c(O)c1	active: -4.3
COc1ccccc1N1CCN(CC(=O)NC(=O)NCc2ccco2)CC1	1.67
Cc1ccccc1Cn1ccc(NC(=O)c2cnn3cccnc23)n1	-1.02
CCc1ccc(-c2nc(CN3CCC(C(=O)NCCN(CC)c4ccccc4)CC3)c(C)o2)cc1	1.17
Cc1c(Cl)cccc1NC(=O)COC(=O)c1c2c(nc3ccccc13)CCN(Cc1ccccc1)C2	-1.03
COC(=O)[C@H](C)NC(=O)/C=C/c1ccc(OC)cc1	0.129
O=C1CC(N2CCN(c3ccccc3F)CC2)C(=O)N1c1ccc(F)cc1 (configuration not stated)	0.198
CCc1ccccc1S(=O)(=O)Cc1ccc(C(=O)N2CCN(c3ccccc3OC)CC2)o1	-0.462
O=C(NC(=S)NC1CCSC1=O)c1ccccc1Cl (configuration not stated)	0.0329
Nc1nc(CSC(=S)N2CCN(c3ccccc3)CC2)nc(Nc2ccccc2)n1	0.00399
O=C(O)c1cccnc1Cl	-0.204
O=C(CSc1ccccc1)Nc1nnc(/C=C/c2ccccc2)s1	-0.187
CC(=O)c1c[nH]c(C(=O)NCC2CCCO2)c1 (configuration not stated)	-0.362
CCCCCC(=O)N1CCN(CCN=CC2=C(O)CC(c3cccs3)CC2=O)CC1 (configuration not stated)	-0.103
Cc1cc(N)c(C)c([N+](=O)[O-])c1C	0.188
Cc1cccc(NC(=O)c2ccccc2C(=O)O)c1	-0.0763
CCOc1cc(/C=N/NC(=O)COc2ccccc2C)ccc1OC(=O)c1cccs1	-0.207
COc1ccc(-c2n[nH]c(C)c2-c2cnn(-c3ccccc3)c2)c(O)c1C	-0.0489
Cn1cccc1/C=N/n1c(-c2ccc(Cl)cc2)n[nH]c1=S	1.03

Structure (SMILES)	z-score
CCCCn1c(SCC(N)=O)nc2c(sc3ccccc32)c1=O	active: 3.23
CCOC(=O)Nc1sc2c(c1C#N)CCC(C)C2 (configuration not stated)	-0.505
O=C(Nc1ccccc1-c1nc2ccccc2s1)c1cccnc1	-1.51
O=C(CCS(=O)(=O)c1ccc(Br)s1)NCc1ccccc1	-0.807
Cn1c(=O)[nH]c(=O)c2[nH]c(CN3CCN(C(=O)c4ccco4)CC3)nc21	0.0365
Cc1ccc(OCC(=O)Nc2ccc([N+](=O)[O-])cn2)cc1C	-0.203
CCOC(=O)COc1ccc2c3c(c(=O)oc2c1C)CCC3	-0.198
O=C(/C=C/Nc1ccccc1)c1ccccc1	0.219
COc1cccc(NC(=O)N2CCN(c3cccc(C)c3C)CC2)c1	-0.0248
COc1ccccc1N=Cc1nc(-c2ccccc2)oc1OC(C)=O	-2.34
Cc1cc(C(=O)NNC(=S)NCC(C)C)cs1	0.377
COc1ccc(C(C)=O)cc1COC(=O)CNC(=O)c1cc(C)cc(C)c1	0.033
COc1ccc(C2OC(=O)CC2C(=O)N2CCN(c3cc(Cl)ccc3C)CC2)cc1OC (configuration not stated)	-0.388
CC1N(O)C(C)(C)C(c2ccccc2)=[N+]1[O-] (configuration not stated)	-0.0396
CS(=O)(=O)NCCSCc1c(F)cccc1Cl	0.311
COc1ccc(C(=O)N2c3ccccc3C=CC2C#N)cc1 (configuration not stated)	-0.62
FC(F)(F)c1cccc(-c2nnc(-c3ccccc3)c(N3CCOCC3)n2)c1	0.255
COC(=O)C1=CN(CCCN2CCCC2=O)C=C(C(=O)OC)C1c1cccs1	-0.0492
CCn1cc(C(=O)OCC(=O)Nc2cccc(S(=O)(=O)N3CCOCC3)c2)c(=O)c2ccc(C)nc21	0.288
